# Assay results as given in PubChem BioAssay AID540317 (National Center for Advancing Translational Sciences (NCATS), 2011).
# Hit rate of the full screen: of about 390,000 compounds, about 2,200 (0.56%) were called active. The shares of active, inactive and inconclusive entries below differ from those in the screen. The call rests on the fitted dose curve; in most records, active means well fitted inhibition curve with a large enough effect; inconclusive means small, poorly fitted or top-dose-only effect; inactive means no such curve, though single readings can be large or run the other way. Potencies beside an inconclusive call are fits to weak or partial responses and may not hold up.
# Biological target: Chromobox protein homolog 1 (Homo sapiens) (UniProt P83916)
# Experiment: HTS for Inhibitors of HP1-beta Chromodomain Interactions with Methylated Histone Tails; further: nearly all actives have a fitted effect of over 70% in size
# Conditions: AlphaScreen HP1-beta / biotin-H3K9me3 peptide binding; series mostly up to 114 µM
# Outline: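 HP1-beta protein (50 nM final) preincubated 30 min at room temperature with biotinylated H3(1-18)K9me3 peptide (50 nM) in PBS pH 7.4, 0.01% Tween-20, then compound added for 30 min. AlphaScreen streptavidin donor/nickel chelate acceptor beads (10 ug/mL final), 30 min dark, luminescence read.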
# Potency means the concentration at half of the fitted maximal effect; tags describe the fitted curve by direction and shape.
# Sequence of UniProt P83916 (P83916 whole entry, looked up): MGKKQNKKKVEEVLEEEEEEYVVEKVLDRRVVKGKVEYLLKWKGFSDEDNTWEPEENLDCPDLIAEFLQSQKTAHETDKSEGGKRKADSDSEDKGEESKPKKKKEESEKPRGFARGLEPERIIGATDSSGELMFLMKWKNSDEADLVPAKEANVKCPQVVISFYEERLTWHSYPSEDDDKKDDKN
row,Structure (SMILES),Potency
1,COc1cc2sc(-c3ccccc3OC)c(-c3ccc(OCCN4CCOCC4)cc3)c2cc1OC,"inconclusive: 39.8 µM [inhibitor, partial curve, poor fit]"
2,O=c1[nH]c(=S)c2[nH]c(=S)n(-c3ccccc3)c2[nH]1,"inconclusive: 50.1 µM [inhibitor, partial curve, poor fit]"
3,COc1ccc([N+](=O)[O-])cc1NC(=O)C(C)OC(=O)c1cccnc1 (stereo not drawn),inactive
4,O=C(NCCOc1ccccc1)C1CCC(=O)N(CCN2CCOCC2)C1 (stereo not drawn),inactive
5,C=CCN1C(=O)C(O)(CC(=O)c2ccc(-n3cccc3)cc2)c2ccccc21 (stereo not drawn),"inconclusive: 15.8 µM [inhibitor, partial curve, poor fit]"
6,CN(Cc1ccccc1)Cc1c(F)cccc1F,"inconclusive: 15.8 µM [inhibitor, full curve]"
7,Cc1ccc(OCC(COCc2ccccc2)NC(C)C)cc1 (stereo not drawn),"inconclusive: 56.2 µM [inhibitor, partial curve, poor fit]"
8,CCOC(=O)C1Nc2ccc(Br)cc2C2C=CCC12 (stereo not drawn),"inconclusive: 39.8 µM [inhibitor, partial curve]"
9,O=[N+]([O-])c1ccc(O)c(-c2nc(-c3ccccc3)c(-c3cccs3)[nH]2)c1,"inconclusive: 17.8 µM [inhibitor, partial curve, poor fit]"
10,CCN1CCCc2cc(CN(CCN3CCOCC3)C(=S)Nc3cc(F)cc(F)c3)ccc21,"inconclusive: 14.1 µM [inhibitor, full curve, poor fit]"
11,CCC1CN(C(=O)N2CCC(C(=O)NCCCc3ccccc3)CC2)c2cc(C)ccc2O1 (stereo not drawn),"inconclusive: 39.8 µM [inhibitor, partial curve]"
12,N#Cc1ccc(OCC(O)CN2CCN(C(c3ccccc3)c3ccccc3)CC2)cc1 (stereo not drawn),"inconclusive: 79.4 µM [inhibitor, partial curve, poor fit]"
13,Cc1cc(NC(=O)CCC(=O)N(CC(=O)NCC2CCCO2)c2ccc(Cl)c(Cl)c2)no1 (stereo not drawn),inactive
14,Cc1cc(O)c(C=O)c2c1C(=O)Oc1c(CO)c(O)c3c(c1O2)C(O)OC3=O (stereo not drawn),"inconclusive: 7.08 µM [inhibitor, full curve, poor fit]"
15,COCC(=O)Nc1ccc(N2CCOCC2)c(S(=O)(=O)Nc2ccccc2OC)c1,"inconclusive: 35.5 µM [inhibitor, partial curve]"
16,Cc1ccc(S(=O)(=O)c2cc3ccccc3oc2=Nc2ccc3c(c2)OCO3)cc1,"inconclusive: 8.91 µM [inhibitor, full curve]"
17,CC1CCN(S(=O)(=O)c2csc(C(N)=O)c2)CC1,inactive
18,CC1=C(C(=O)OC(C)C)C(c2ccc(Cl)cc2)n2c(s/c(=C\c3ccc(OCC(=O)O)cc3)c2=O)=N1 (stereo not drawn),"inconclusive: 79.4 µM [inhibitor, single point]"
19,Cc1cc(S(=O)(=O)N2CCOCC2)ccc1F,"inconclusive: 39.8 µM [inhibitor, single point]"
20,Cc1ccc(CSc2nc3cccnc3n2Cc2ccc(C(=O)NC3CCCCC3)cc2)cc1,inactive
21,CC(=O)Nc1cccc(-c2csc(NCc3ccccc3)n2)c1,"inconclusive: 15.8 µM [inhibitor, full curve, poor fit]"
22,Cc1nnsc1S(=O)(=O)Cc1ccccc1C(F)(F)F,inactive

row,Structure (SMILES),Potency
1,COc1ccc(-c2nc(S(=O)(=O)c3ccc(C)cc3)c(N3CCCCC3)o2)cc1,"inconclusive: 44.7 µM [inhibitor, partial curve]"
2,CCN(c1ccccc1)S(=O)(=O)c1ccc(Cl)c(NC(=O)COC(=O)c2ccc(O)cc2)c1,"inconclusive: 35.5 µM [inhibitor, single point]"
3,Cc1ccc(Cn2c(CCNC(=O)C(C)C)nc3ccccc32)cc1,inactive
4,COc1ccc2nc(N/C(N)=N/S(C)(=O)=O)nc(C)c2c1,inactive
5,CSc1ccc(C(=O)C2CCCN(Cc3cccn3-c3cccnc3)C2)cc1 (stereo not drawn),"inconclusive: 35.5 µM [inhibitor, full curve]"
6,Cc1ccc(-c2ccc(/C=N/NC(N)=S)o2)cc1,"inconclusive: 5.62 µM [inhibitor, full curve]"
7,Fc1ccc2c(c1)C1OCCCC1C(c1ccccc1)N2 (stereo not drawn),"inconclusive: 70.8 µM [inhibitor, partial curve]"
8,Cc1ccc(-n2cc(CN(C)Cc3nccn3C)c(-c3cccc(C)c3)n2)cc1,"inconclusive: 31.6 µM [inhibitor, partial curve, poor fit]"
9,Cc1ccc(C(=O)N2N=C(c3cccc(NS(C)(=O)=O)c3)CC2c2cccs2)cc1 (stereo not drawn),inactive
10,CN(CP(=O)(O)C(O)c1ccccc1)S(C)(=O)=O (stereo not drawn),inactive
11,Cc1nn(-c2ccc(N3CCCC3)nn2)c(C)c1CCC(=O)N1CCN(c2ccccc2F)CC1,inactive
12,CC(=O)Nc1cccc(-c2csc(NCc3ccco3)n2)c1,"inconclusive: 79.4 µM [inhibitor, single point]"
13,CC1(C)CC2CC(C)(CN2C(=O)COC(=O)c2ccc(O)cc2O)C1 (stereo not drawn),"inconclusive: 39.8 µM [inhibitor, single point]"
14,Cc1cs/c(=N\N=C2CCCCC2)n1Cc1ccco1,"inconclusive: 25.1 µM [inhibitor, partial curve, poor fit]"
15,Cc1cc2c(cc1S(=O)(=O)N1CCN(c3ccccc3)CC1)OCCN2C,"inconclusive: 28.2 µM [inhibitor, partial curve]"
16,Cc1ccc(-c2nnc3sc(C4COc5ccccc5O4)nn23)cc1 (stereo not drawn),inactive
17,COc1ccccc1/C=C/CN1CC(C)OC(C)C1 (stereo not drawn),"inconclusive: 39.8 µM [inhibitor, partial curve]"
18,O=C(COc1ccccc1)OCc1cc(=O)n2nc(-c3cccs3)sc2n1,"inconclusive: 89.1 µM [inhibitor, partial curve, poor fit]"
19,Cc1cccc(C)c1NC(=O)CCCSc1nnc(-c2ccco2)o1,inactive
20,COc1cccc(OCCn2c(-c3ccc(Br)cc3)nc3ccccc3c2=O)c1,"inconclusive: 89.1 µM [inhibitor, single point]"
21,S=c1[nH]nc(Cc2ccc(Br)cc2)n1/N=C/c1ccc(Cl)cc1,"inconclusive: 25.1 µM [inhibitor, partial curve]"
